Laboratory results reported in PubChem BioAssay AID485294 (National Center for Advancing Translational Sciences (NCATS), 2010).
The whole screen tested about 370,000 compounds, of which about 150 (0.041%) were called active. This list was built around the results that the source calls inconclusive (neither active nor inactive); the mix of calls is not that of the screen. The call rests on the fitted dose curve; in most records, active means well fitted inhibition curve with a large enough effect; inconclusive means small, poorly fitted or top-dose-only effect; inactive means flat fitted curve, though single readings scatter. No potency is given beside an inconclusive call; the fits are too rough.

Biological target: Beta-lactamase (Escherichia coli (strain K12)) (UniProt P00811)
UniProt P00811, sequence (P00811 whole entry, looked up): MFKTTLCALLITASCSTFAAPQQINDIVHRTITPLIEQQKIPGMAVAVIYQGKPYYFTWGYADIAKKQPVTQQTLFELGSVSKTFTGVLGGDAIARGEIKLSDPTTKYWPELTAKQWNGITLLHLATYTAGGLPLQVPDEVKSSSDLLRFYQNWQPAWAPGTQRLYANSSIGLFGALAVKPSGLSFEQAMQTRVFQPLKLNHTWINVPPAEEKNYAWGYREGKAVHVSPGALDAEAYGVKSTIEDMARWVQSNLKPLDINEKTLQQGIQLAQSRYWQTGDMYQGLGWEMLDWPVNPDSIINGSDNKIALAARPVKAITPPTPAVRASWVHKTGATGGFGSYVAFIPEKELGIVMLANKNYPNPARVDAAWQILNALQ
Assay: qHTS Inhibitors of AmpC Beta-Lactamase (assay with detergent); further: nearly all actives have a fitted effect of over 25% in size
Details: AmpC hydrolysis of nitrocefin, absorbance 480 nm, 0.01% Triton; series mostly up to 114 µM
In short: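 AmpC (5.3 nM in the dispensed reagent) in 20 mM phosphate pH 7.0 with 0.01% (detergent screen) or 0.0001% Triton X-100 was preincubated with compounds for 15 min at room temperature. Nitrocefin was then added from an 800 uM solution, and hydrolysis was followed at 480 nm.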
Potency means the concentration at half of the fitted maximal effect; tags describe the fitted curve by direction and shape.

`COc1cc(C=C(c2nc3ccccc3s2)c2nc3ccccc3s2)ccc1O` was tested. Which Potency did it give?
Its Potency is “inactive”.

`CCn1c(COc2cc(C)cc(C)c2)nnc1SCC(=O)N1CCN(c2ccccc2)CC1` was tested. Which Potency did it give?
Its Potency is inconclusive [inhibitor, single point].

With `Cn1nc(-c2ccccc2)c(C(=O)Nc2ccc(C(F)(F)F)cc2)c1Cl` as the molecule, how does the Potency read?
Its Potency is inconclusive [inhibitor, single point].

`CCc1nnc(NC(=O)C2CCN(C(=O)c3ccco3)CC2)s1` was tested. Which Potency did it give?
Its Potency is inconclusive [inhibitor, partial curve, poor fit].

How did the Potency turn out when `CCN(CC)S(=O)(=O)c1ccc(F)c(C(=O)OC2CC(C)OC2=O)c1` (stereo not given) was run?
Its Potency is “inactive”.

`O=C(CCNC(=O)c1ccccc1Cl)NCCc1ccc(Cl)cc1` was tested. Which Potency did it give?
Its Potency is inconclusive [inhibitor, single point].

For `O=C1c2cccc3cccc(c23)C(=O)N1CCN1CCN(C(=S)Nc2ccc(F)cc2)CC1`, which Potency is on record?
Its Potency is inconclusive [inhibitor, partial curve, poor fit].

With `CNC(=O)CSc1nc2[nH]ncc2c(=O)[nH]1` as the molecule, how does the Potency read?
The Potency was inconclusive [inhibitor, full curve].

`Cc1ccc(NC(=O)C2CCC(=O)N2)cc1C` (stereo not given) was tested. Which Potency did it give?
Its Potency is “inactive”.

`O=C(N/N=C/c1cc(Br)cs1)c1ccccc1[N+](=O)[O-]` was tested. Which Potency did it give?
Its Potency is inconclusive [inhibitor, full curve].

How did the Potency turn out when `CCCCCOC(=O)Nc1ccc(S(=O)(=O)Nn2cnnc2)cc1` was run?
Its Potency is inconclusive [inhibitor, full curve, poor fit].

With `CCOc1ccc(N(CC(=O)NCCSCc2ccc(Cl)cc2)S(C)(=O)=O)cc1` as the molecule, how does the Potency read?
Its Potency is inconclusive [inhibitor, full curve, poor fit].

With `CCCCOC(=O)c1ccc(NC(=O)c2cc(Cl)ccc2OC)cc1` as the molecule, how does the Potency read?
Its Potency is inconclusive [inhibitor, full curve, poor fit].

Which Potency does the source give for `Cc1nnc(Sc2cc(NCCCO)c([N+](=O)[O-])c3nonc23)s1` here?
Its Potency is inconclusive [inhibitor, partial curve].

`O=C(c1ccccc1)N1CCN(CC2CC=CCC2)CC1` (stereo not given) was tested. Which Potency did it give?
Its Potency is inconclusive [inhibitor, single point].

`Cc1ccc(S(=O)(=O)N2CCC(=O)N(CCOCc3cccc(F)c3)CC2)cc1` was tested. Which Potency did it give?
The Potency was inconclusive [inhibitor, partial curve, poor fit].

Which Potency does the source give for `Cn1cccc1C(=O)OCC(=O)N1CC(=O)Nc2ccccc21` here?
The Potency was inconclusive [inhibitor, full curve, poor fit].

`Cc1ccc(OCC(O)CN2CCOCC2)cc1` (stereo not given) was tested. Which Potency did it give?
The Potency was inconclusive [inhibitor, partial curve, poor fit].

How did the Potency turn out when `Cc1ccccc1NC(=O)CCC(=O)N/N=C/c1ccncc1` was run?
The Potency was inconclusive [inhibitor, partial curve].

For `Cc1cccc(CCNC(=O)c2c[nH]c3ccc(S(=O)(=O)Nc4ccccc4F)cc3c2=O)c1`, which Potency is on record?
The Potency was “inactive”.

For `CC(C)c1ccc(S(=O)(=O)c2cc3cc(Br)ccc3oc2=O)cc1`, which Potency is on record?
Its Potency is “inactive”.

How did the Potency turn out when `Cc1ccc(S(=O)(=O)N(C)/N=C/c2ccc(N(C)C)cc2)cc1` was run?
The Potency was inconclusive [inhibitor, partial curve].

Which Potency does the source give for `CC1(C)CC(=O)C(C=NCCc2ccc(O)cc2)=C(O)C1` here?
Its Potency is “inactive”.

`Cc1ccc(-c2ccc(/C=N\n3cnnc3)o2)c(Br)c1` was tested. Which Potency did it give?
Its Potency is “inactive”.

How did the Potency turn out when `COc1cccc(-c2nnc3sc(CN4CCCCC4)cn23)c1` was run?
Its Potency is “inactive”.

`COc1cc(C)c(C)cc1S(=O)(=O)NC1CC(C)(C)NC(C)(C)C1` was tested. Which Potency did it give?
Its Potency is inconclusive [inhibitor, partial curve, poor fit].

`CC(=O)Nc1ccc(C(=O)CSc2nnc(Cn3nnc4ccccc43)n2C)cc1` was tested. Which Potency did it give?
Its Potency is inconclusive [inhibitor, full curve, poor fit].

For `CCC1CCCCN1C(=O)Cn1c(=O)n(CCCCCC(=O)NCc2ccccc2Cl)c(=O)c2sccc21` (stereo not given), which Potency is on record?
The Potency was “inactive”.

With `O=c1cc(-c2ccccc2Cl)oc2ccc([N+](=O)[O-])c(O)c12` as the molecule, how does the Potency read?
Its Potency is “inactive”.

How did the Potency turn out when `COC(=O)c1ccccc1OCc1cccc(C)n1` was run?
Its Potency is inconclusive [inhibitor, partial curve, poor fit].

`O=C(Nc1ccc(NC(=O)c2ccc(Cl)c(S(=O)(=O)N3CCOCC3)c2)cc1)c1ccccc1` was tested. Which Potency did it give?
The Potency was “inactive”.

`c1ccc(COc2ccccc2CNC2CCCC2)cc1` was tested. Which Potency did it give?
Its Potency is “inactive”.

For `CCOC(=O)c1cccc(P(C)(C)=O)c1`, which Potency is on record?
The Potency was inconclusive [inhibitor, partial curve].

Which Potency does the source give for `O=C(Nc1cccnc1)c1ccc(S(=O)(=O)N2CCCCCC2)cc1` here?
Its Potency is inconclusive [inhibitor, single point].

For `CC(C)C(O)(C#CCN1CCCCC1)c1ccccc1` (stereo not given), which Potency is on record?
The Potency was inconclusive [inhibitor, full curve, poor fit].

Which Potency does the source give for `CCOc1cc(/C=N/n2cnnc2)ccc1OCC(=O)Nc1ccccc1OC` here?
Its Potency is inconclusive [inhibitor, full curve].

For `O=C(O)[C@H](Cc1ccccc1)N1C(=O)c2c(Cl)c(Cl)c(Cl)c(Cl)c2C1=O`, which Potency is on record?
Its Potency is inconclusive [inhibitor, partial curve].

With `Cc1ccc(NC(=O)Nc2cnccn2)c(C)c1` as the molecule, how does the Potency read?
Its Potency is inconclusive [inhibitor, full curve].

`NC(=S)Cc1nc(-c2ccccc2)cs1` was tested. Which Potency did it give?
The Potency was inconclusive [inhibitor, full curve, poor fit].

How did the Potency turn out when `Fc1ccc(N2CCN(c3ccc4c(C(F)(F)F)cc(C(F)(F)F)nc4n3)CC2)cc1` was run?
The Potency was inconclusive [inhibitor, partial curve].

For `COC(=O)C1CCN(C(=O)COC(=O)C2CCN(S(=O)(=O)c3ccc4c(c3)OCCO4)CC2)CC1`, which Potency is on record?
Its Potency is inconclusive [inhibitor, single point].

With `Cc1sc2ncn(CC(=O)N(C)c3cccc(C(F)(F)F)c3)c(=O)c2c1S(=O)(=O)N1CCN(c2ncccn2)CC1` as the molecule, how does the Potency read?
Its Potency is “inactive”.

With `CSc1ccc(CCNC(=O)C2CCN(c3ncnc4c3nc3n4CCCCC3)CC2)cc1` as the molecule, how does the Potency read?
Its Potency is “inactive”.

For `COc1ccccc1-c1nc(SCC(=O)Nc2ccc(C)c(C)c2)n[nH]1`, which Potency is on record?
The Potency was “inactive”.

How did the Potency turn out when `COc1ccc(OC)c(N/C=C/C(=O)c2ccccc2)c1` was run?
Its Potency is “inactive”.

How did the Potency turn out when `CCOC(=O)c1ccc(N=Cc2nc(-c3ccccc3)oc2OC(C)=O)cc1` was run?
Its Potency is inconclusive [inhibitor, full curve, poor fit].

With `COc1cc(OC)cc(C(=O)N2CCN(c3ccccc3F)CC2)c1` as the molecule, how does the Potency read?
The Potency was inconclusive [inhibitor, full curve, poor fit].

With `CC(=O)NS(=O)(=O)c1ccc2c(c1)Cc1cc(S(=O)(=O)NC(C)=O)ccc1-2` as the molecule, how does the Potency read?
The Potency was inconclusive [inhibitor, full curve, poor fit].

`CC(=O)C(C)Oc1ccc2c3c(c(=O)oc2c1C)CCCC3` (stereo not given) was tested. Which Potency did it give?
The Potency was “inactive”.

`NC(=O)C1CCCN(C(=O)CNC(=O)C23CC4CC(CC(C4)C2)C3)C1` (stereo not given) was tested. Which Potency did it give?
Its Potency is inconclusive [inhibitor, full curve, poor fit].

For `O=C1CN(C(=O)N[C@@H](Cc2ccccc2)C(=O)N[C@@H](Cc2ccccc2)C(=O)O)c2ccccc2N1`, which Potency is on record?
The Potency was “inactive”.

For `Cc1ccccc1-n1c(C)cc(/C=C(\C#N)C(=O)NCC2CCCO2)c1C` (stereo not given), which Potency is on record?
The Potency was inconclusive [inhibitor, partial curve, poor fit].

How did the Potency turn out when `Cc1cccc(NC(=O)Cn2cnc3c(cnn3-c3ccc(F)cc3)c2=O)c1C` was run?
The Potency was inconclusive [inhibitor, full curve, poor fit].

Which Potency does the source give for `COc1cccc(CN2CCN(Cc3ccc(OC)c(OC)c3)CC2CCO)c1` (stereo not given) here?
The Potency was “inactive”.

How did the Potency turn out when `CCCCC(=O)Nc1nc(C)c(-c2csc(Nc3ccccc3OC)n2)s1` was run?
Its Potency is “inactive”.

`COc1cc(NC(=O)CCNC(=O)Cn2cnc3ccccc3c2=O)cc(OC)c1OC` was tested. Which Potency did it give?
The Potency was inconclusive [inhibitor, single point].

Which Potency does the source give for `Cc1cc(=O)oc2cc(OCC(=O)Nc3c(C(C)C)cccc3C(C)C)ccc12` here?
Its Potency is “inactive”.

For `O=C(NC1CCCCC1)c1ccc2c(c1)OCO2`, which Potency is on record?
The Potency was “inactive”.

With `O=C(Nc1ccc(Cl)cn1)Nc1ccc(Cl)cn1` as the molecule, how does the Potency read?
The Potency was inconclusive [inhibitor, full curve, poor fit].

`CC(C)(CO)NC(=S)NCc1ccco1` was tested. Which Potency did it give?
Its Potency is “inactive”.

Which Potency does the source give for `CCc1ccc(C(=O)C(C)OC(=O)c2cccc(S(=O)(=O)N3CCOCC3)c2)cc1` (stereo not given) here?
Its Potency is inconclusive [inhibitor, full curve, poor fit].

With `Cc1ccc(C(=O)NCCOC23CC4CC(CC(C4)C2)C3)cc1` as the molecule, how does the Potency read?
Its Potency is “inactive”.

With `O=C(CSc1ccccn1)Nc1ccc2c(c1)C(=O)c1ccccc1C2=O` as the molecule, how does the Potency read?
Its Potency is inconclusive [inhibitor, full curve, poor fit].

`COc1cccc(C(=O)C2CCCN(C(=O)CCC3=NNC(=O)CC3)C2)c1` (stereo not given) was tested. Which Potency did it give?
The Potency was “inactive”.

Which Potency does the source give for `Cc1ccc(NC(=O)Cn2cnc3sc(C(=O)NCc4ccco4)c(C)c3c2=O)cc1Cl` here?
The Potency was inconclusive [inhibitor, full curve, poor fit].

`CC(c1nc2ccccc2c(=O)[nH]1)N1CCOCC1` (stereo not given) was tested. Which Potency did it give?
The Potency was inconclusive [inhibitor, single point].

With `CC(C)(C)c1ccc(C(=O)N2CCN(Cc3cc(=O)n4nc(-c5ccccc5F)sc4n3)CC2)cc1` as the molecule, how does the Potency read?
Its Potency is “inactive”.

With `O=C(NC1CCCCC1)C(=S)NCCc1ccccc1` as the molecule, how does the Potency read?
The Potency was inconclusive [inhibitor, full curve, poor fit].

`CCS(=O)(=O)N1CCC(C(=O)Oc2ccc(C)c(C)c2)CC1` was tested. Which Potency did it give?
The Potency was inconclusive [inhibitor, full curve, poor fit].

For `Cc1cc(Cl)ccc1NNC(=O)c1cccs1`, which Potency is on record?
The Potency was “inactive”.
